Measurements: the supplement of paper PMC8728848
The list shows a part of the results.

Tests used:
Experiment in all cases: glycan array binding signal (z-score within array); higher = stronger binding
Settings in all cases: glycan notation: IUPAC condensed, linker removed
[1] = biological target: Fuc(a1-3)[Gal(b1-4)]GlcNAc(b1-4)Gal(b1-4)[Fuc(a1-3)]GlcNAc(b1-4)Gal(b1-4)[Fuc(a1-3)]GlcNAc
In short: (§1)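 Glycan array data were curated from 3228 arrays in the Consortium for Functional Glycomics database and kept only where the protein sequence was available. Glycan names were converted to IUPAC-condensed notation, and columns mapping to the same glycan were averaged. The binding signal is a within-array Z-score, averaged across arrays of the same protein sequence at different concentrations or buffers and across linkers. Negative Z-scores can be read as non-binding.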

[2] = biological target: Fuc(a1-3)[Gal(b1-4)]GlcNAc6S
In short: as §1

[3] = biological target: Fuc(a1-3)[Gal3S(b1-4)]Glc
In short: as §1

[4] = biological target: Fuc(a1-3)[Gal3S(b1-4)]Glc6S
In short: as §1

[5] = biological target: Fuc(a1-3)[Gal3S(b1-4)]GlcNAc
In short: as §1

[6] = biological target: Fuc(a1-3)[Gal3S(b1-4)]GlcNAc6S
In short: as §1

[7] = biological target: Fuc(a1-3)[GalNAc(b1-4)]Gal(b1-4)GlcNAc
In short: as §1

[8] = biological target: Fuc(a1-3)[GalNAc(b1-4)]GlcNAc
In short: as §1

Fuc(a1-4)GlcNAc = biological target: Fuc(a1-4)GlcNAc
In short: as §1

Fuc(b1-3)GlcNAc = biological target: Fuc(b1-3)GlcNAc
In short: as §1

Gal(a1-2)Gal = biological target: Gal(a1-2)Gal
In short: as §1

Gal(a1-3)Gal = biological target: Gal(a1-3)Gal
In short: as §1

Gal(a1-3)Gal(b1-3)Glc = biological target: Gal(a1-3)Gal(b1-3)Glc
In short: as §1

Gal(a1-3)Gal(b1-3)GlcNAc = biological target: Gal(a1-3)Gal(b1-3)GlcNAc
In short: as §1

Gal(a1-3)Gal(b1-4)Glc = biological target: Gal(a1-3)Gal(b1-4)Glc
In short: as §1

Gal(a1-3)Gal(b1-4)GlcNAc = biological target: Gal(a1-3)Gal(b1-4)GlcNAc
In short: as §1

[9] = biological target: Gal(a1-3)Gal(b1-4)[Fuc(a1-3)]GalNAc
In short: as §1

[10] = biological target: Gal(a1-3)Gal(b1-4)[Fuc(a1-3)]GlcNAc
In short: as §1

Gal(a1-3)GalNAc = biological target: Gal(a1-3)GalNAc
In short: as §1

Gal(a1-3)GlcNAc = biological target: Gal(a1-3)GlcNAc
In short: as §1

[11] = biological target: Gal(a1-3)[Gal(a1-4)]Gal(b1-4)GlcNAc
In short: as §1

Gal(a1-4)Gal(b1-4)Gal = biological target: Gal(a1-4)Gal(b1-4)Gal
In short: as §1

Gal(a1-4)Gal(b1-4)GalNAc = biological target: Gal(a1-4)Gal(b1-4)GalNAc
In short: as §1

Gal(a1-4)Gal(b1-4)Glc = biological target: Gal(a1-4)Gal(b1-4)Glc
In short: as §1

Gal(a1-4)Gal(b1-4)GlcNAc = biological target: Gal(a1-4)Gal(b1-4)GlcNAc
In short: as §1

Gal(a1-4)GlcNAc = biological target: Gal(a1-4)GlcNAc
In short: as §1

Gal(a1-6)Glc = biological target: Gal(a1-6)Glc
In short: as §1

Gal(b1-2)Gal = biological target: Gal(b1-2)Gal
In short: as §1

Gal(b1-3)Gal = biological target: Gal(b1-3)Gal
In short: as §1

Gal(b1-3)Gal(b1-4)GlcNAc = biological target: Gal(b1-3)Gal(b1-4)GlcNAc
In short: as §1

Gal(b1-3)GalNAc = biological target: Gal(b1-3)GalNAc
In short: as §1

[12] = biological target: Gal(b1-3)GalNAc(b1-3)Gal(a1-4)Gal(b1-4)Glc
In short: as §1

[13] = biological target: Gal(b1-3)GalNAc(b1-3)Gal(b1-4)Glc
In short: as §1

[14] = biological target: Gal(b1-3)GalNAc(b1-3)Gal(b1-4)GlcNAc
In short: as §1

[15] = biological target: Gal(b1-3)GalNAc(b1-4)Gal(b1-4)Glc
In short: as §1

[16] = biological target: Gal(b1-3)GalNAc(b1-4)[Neu5Ac(a2-3)]Gal(b1-4)Glc
In short: as §1

Gal(b1-3)GlcNAc = biological target: Gal(b1-3)GlcNAc
In short: as §1

[17] = biological target: Gal(b1-3)GlcNAc(b1-2)Man(a1-3)[Gal(b1-3)GlcNAc(b1-2)Man(a1-6)]Man(b1-4)GlcNAc(b1-4)GlcNAc
In short: as §1

[18] = biological target: Gal(b1-3)GlcNAc(b1-3)Gal(b1-3)GlcNAc
In short: as §1

[19] = biological target: Gal(b1-3)GlcNAc(b1-3)Gal(b1-4)Glc
In short: as §1

[20] = biological target: Gal(b1-3)GlcNAc(b1-3)Gal(b1-4)GlcNAc
In short: as §1

[21] = biological target: Gal(b1-3)[Fuc(a1-4)]GlcNAc
In short: as §1

[22] = biological target: Gal(b1-3)[Fuc(a1-4)]GlcNAc(b1-3)Gal(b1-3)[Fuc(a1-4)]GlcNAc
In short: as §1

[23] = biological target: Gal(b1-3)[Fuc(a1-4)]GlcNAc(b1-3)Gal(b1-4)GlcNAc
In short: as §1

[24] = biological target: Gal(b1-3)[Fuc(a1-4)]GlcNAc(b1-3)Gal(b1-4)[Fuc(a1-3)]GlcNAc
In short: as §1

B1: NcCVNHO (Neurospora crassa), Q7S6U4 (protein)
chain: MSFHVTAEDARIEVRDNRTILFARLRREDGEWNDASYELDQIIGNNDGHFQWGGQNFTETAEDIRFHPKEGAAEQPILRARLRDCNGEFHDRDVNLTEIVENVNGEFQAKF
Question: Which “glycan array binding signal (z-score)” value [1] does the source give for B1 here?
Answer: Its value is -0.212.

Question: And the “glycan array binding signal (z-score)” value [2]?
Answer: Its value is -0.178.

Question: And the “glycan array binding signal (z-score)” value [3]?
Answer: The value was -0.146.

Question: And the “glycan array binding signal (z-score)” value [4]?
Answer: Its value is -0.15.

Question: And the “glycan array binding signal (z-score)” value [5]?
Answer: Its value is -0.189.

Question: What about the “glycan array binding signal (z-score)” value [6] of the same binder?
Answer: Its value is -0.172.

Question: What about the “glycan array binding signal (z-score)” value [7] of the same binder?
Answer: The value was -0.152.

Question: And the “glycan array binding signal (z-score)” value [8]?
Answer: Its value is -0.254.

Question: What about the “glycan array binding signal (z-score)” value (Fuc(a1-4)GlcNAc) of the same binder?
Answer: The value was -0.238.

Question: What about the “glycan array binding signal (z-score)” value (Fuc(b1-3)GlcNAc) of the same binder?
Answer: The value was -0.209.

Question: What about the “glycan array binding signal (z-score)” value (Gal(a1-2)Gal) of the same binder?
Answer: Its value is -0.225.

Question: And the “glycan array binding signal (z-score)” value (Gal(a1-3)Gal)?
Answer: The value was -0.218.

Question: What about the “glycan array binding signal (z-score)” value (Gal(a1-3)Gal(b1-3)Glc) of the same binder?
Answer: Its value is 0.103.

Question: And the “glycan array binding signal (z-score)” value (Gal(a1-3)Gal(b1-3)GlcNAc)?
Answer: The value was -0.23.

Question: And the “glycan array binding signal (z-score)” value (Gal(a1-3)Gal(b1-4)Glc)?
Answer: Its value is -0.256.

Question: What about the “glycan array binding signal (z-score)” value (Gal(a1-3)Gal(b1-4)GlcNAc) of the same binder?
Answer: The value was -0.21.

Question: What about the “glycan array binding signal (z-score)” value [9] of the same binder?
Answer: Its value is -0.114.

Question: What about the “glycan array binding signal (z-score)” value [10] of the same binder?
Answer: Its value is -0.266.

Question: And the “glycan array binding signal (z-score)” value (Gal(a1-3)GalNAc)?
Answer: Its value is -0.225.

Question: What about the “glycan array binding signal (z-score)” value (Gal(a1-3)GlcNAc) of the same binder?
Answer: The value was -0.116.

Question: What about the “glycan array binding signal (z-score)” value [11] of the same binder?
Answer: Its value is -0.219.

Question: And the “glycan array binding signal (z-score)” value (Gal(a1-4)Gal(b1-4)Gal)?
Answer: Its value is -0.168.

Question: And the “glycan array binding signal (z-score)” value (Gal(a1-4)Gal(b1-4)GalNAc)?
Answer: The value was -0.143.

Question: And the “glycan array binding signal (z-score)” value (Gal(a1-4)Gal(b1-4)Glc)?
Answer: Its value is 0.495.

Question: And the “glycan array binding signal (z-score)” value (Gal(a1-4)Gal(b1-4)GlcNAc)?
Answer: Its value is 0.191.

Question: And the “glycan array binding signal (z-score)” value (Gal(a1-4)GlcNAc)?
Answer: The value was -0.196.

Question: What about the “glycan array binding signal (z-score)” value (Gal(a1-6)Glc) of the same binder?
Answer: Its value is 1.97.

Question: What about the “glycan array binding signal (z-score)” value (Gal(b1-2)Gal) of the same binder?
Answer: The value was -0.217.

Question: And the “glycan array binding signal (z-score)” value (Gal(b1-3)Gal)?
Answer: Its value is -0.202.

Question: And the “glycan array binding signal (z-score)” value (Gal(b1-3)Gal(b1-4)GlcNAc)?
Answer: Its value is -0.149.

Question: And the “glycan array binding signal (z-score)” value (Gal(b1-3)GalNAc)?
Answer: Its value is -0.141.

Question: What about the “glycan array binding signal (z-score)” value [12] of the same binder?
Answer: Its value is -0.054.

Question: What about the “glycan array binding signal (z-score)” value [13] of the same binder?
Answer: The value was -0.165.

Question: And the “glycan array binding signal (z-score)” value [14]?
Answer: Its value is -0.108.

Question: And the “glycan array binding signal (z-score)” value [15]?
Answer: The value was -0.237.

Question: And the “glycan array binding signal (z-score)” value [16]?
Answer: The value was -0.239.

Question: What about the “glycan array binding signal (z-score)” value (Gal(b1-3)GlcNAc) of the same binder?
Answer: The value was -0.26.

Question: What about the “glycan array binding signal (z-score)” value [17] of the same binder?
Answer: The value was -0.174.

Question: What about the “glycan array binding signal (z-score)” value [18] of the same binder?
Answer: Its value is -0.168.

Question: What about the “glycan array binding signal (z-score)” value [19] of the same binder?
Answer: The value was 4.71.

Question: What about the “glycan array binding signal (z-score)” value [20] of the same binder?
Answer: Its value is -0.264.

Question: And the “glycan array binding signal (z-score)” value [21]?
Answer: The value was -0.235.

Question: And the “glycan array binding signal (z-score)” value [22]?
Answer: The value was -0.154.

Question: What about the “glycan array binding signal (z-score)” value [23] of the same binder?
Answer: Its value is -0.219.

Question: And the “glycan array binding signal (z-score)” value [24]?
Answer: Its value is -0.231.
